# Measurements taken from PubChem BioAssay AID2100 (National Center for Advancing Translational Sciences (NCATS), 2009).
# About 1,200 (0.4%) of roughly 300,000 compounds were called active. The shares of active, inactive and inconclusive entries below differ from those in the screen. Calls follow the shape of the dose curve; as a rule, active = well fitted inhibition curve with a large enough effect; inconclusive = small, poorly fitted or top-dose-only effect, or another doubt; inactive = no such curve, though single readings can be large or run the other way. Potencies beside an inconclusive call are fits to weak or partial responses and may not hold up.
# Target: Lysosomal alpha-glucosidase (Homo sapiens) (UniProt P10253)
# Assay: qHTS Assay for Inhibitors and Activators of Human alpha-Glucosidase Cleavage of Glycogen;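 as to activity change, negative = inhibition: 0% = full enzyme reaction and -100% = no-enzyme basal signal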
# Conditions: recombinant GAA, glycogen substrate, Amplex Red glucose oxidase fluorescence; activity change, negative = inhibition: at 76.4 µM (top of the series) unless noted
# In short: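 Recombinant human enzyme (4 nM); glycogen substrate; 37 C, 40 min, pH 5.0. Readout: coupled glucose oxidase/Amplex Red fluorescence.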
# Potency is read from the fitted curve at half-maximal effect.
Structure (SMILES),Potency,"activity change, negative = inhibition"
CCn1cc(C(=O)NN)c(=O)c2cc(F)c(N3CCOCC3)cc21,"inconclusive: 35.5 µM [inhibitor, single point]",
Cc1ccc(C(=O)Nc2ccc(N3CCOCC3)nc2N2CCOCC2)cc1,"inconclusive: 9.92 µM [inhibitor, partial curve]",
Cc1ccccc1-c1nn2c(-c3ccccc3)nnc2s1,,inconclusive: 30% [activator]
CCCc1cc(=O)[nH]c(Nc2ccc(N3CCCCC3)cc2)n1,"inconclusive: 17.8 µM [inhibitor, partial curve]",
CCOc1cc(/C=C2\C(=O)N(CCC#N)N=C2C)ccc1OCC(N)=O,"inconclusive: 11.2 µM [inhibitor, partial curve]",
COc1ccc(/C=C2/C(=O)N(c3c(F)c(F)c(F)c(F)c3F)N=C2C)cc1,"inconclusive: 39.8 µM [inhibitor, partial curve]",
Cc1ccc(S(=O)(=O)Nc2cc3c(cc2NCc2ccccc2)n(C)c(=O)n3C)cc1,"inconclusive: 28.2 µM [inhibitor, single point]",
c1ccc(Nc2n[nH]nc2-c2ccccc2)cc1,"inconclusive: 22.2 µM [inhibitor, partial curve]",
O=C1S/C(=C\c2ccc(N3CCOCC3)o2)C(=O)N1Cc1ccc(F)cc1,inactive,
Cc1ccsc1CN(C(=O)c1oc2ccc(Br)cc2c1C)C1CCS(=O)(=O)C1 (stereo not drawn),inactive,
O=C(Nc1ccc(Cc2ccc(NC(=O)C3CC3)c(O)c2)cc1O)C1CC1,"inconclusive: 24.9 µM [inhibitor, single point]",
COC(=O)c1[nH]c2ccc(Br)cc2c1NC(=O)Oc1ccccc1,"inconclusive: 10 µM [inhibitor, partial curve]",
Oc1ccc(Nc2nc(NCC3CCCO3)c3ccccc3n2)cc1 (stereo not drawn),"inconclusive: 8.84 µM [inhibitor, full curve]",
Fc1ccc(Nc2nc(-c3ccncc3)cs2)cc1,inactive,
Cc1ccc(CNc2oc(-c3ccc(COc4ccc(C)cc4)o3)nc2C#N)cc1,"inconclusive: 17.8 µM [inhibitor, partial curve]",
O=C(NCc1cccnc1)NC1(C(F)(F)F)Oc2ccccc2O1,active: 24.9 µM,
O=C1OCC(CO)(CO)N=C1NNc1ccc(Cl)c(Cl)c1,active: 35.5 µM,
O=C(NNc1ccccn1)c1ccc(Cl)nc1,"inconclusive: 39.5 µM [inhibitor, single point]",
Cc1cc(C)n2c(Nc3ccc(C(C)C)cc3)c(-c3ccsc3)nc2n1,"inconclusive: 4.47 µM [inhibitor, full curve]",
Cc1cccc(NC(=O)c2onc3c2CCCC3)n1,inactive,
Oc1ccc(/C(Cc2ccccn2)=N\Nc2ccccc2)c(O)c1,"inconclusive: 3.14 µM [inhibitor, single point]",
Cc1ccccc1Nc1sc(C(=O)Nc2cccc(Cl)c2)c(N)c1C(N)=O,"inconclusive: 35.5 µM [inhibitor, single point]",
Cn1cccc1/C=N/N1CCN(c2ccccc2)CC1,"inconclusive: 28.2 µM [inhibitor, partial curve]",

Structure (SMILES),Potency,"activity change, negative = inhibition"
O=C(NNC(=S)NC1CCCCC1)c1cccs1,"inconclusive: 7.08 µM [inhibitor, full curve]",
COc1cc(/C=N/Nc2ccccn2)cc(OC)c1O,active: 17.8 µM,
CCc1cccc(NC(=O)Cn2c(=O)n(-c3cccc(Cl)c3)c(=O)c3c2c2cc(C)ccc2n3C)c1,inactive,
Nc1ccc(S(=O)(=O)NNC(=O)C(=O)NNc2ccccn2)cc1,active: 3.16 µM,
N#Cc1nc(-c2ccccc2)oc1NCCCn1ccnc1,"inconclusive: 9.92 µM [inhibitor, partial curve]",
Cc1[nH][nH]c(=O)c1C(c1c(C)[nH][nH]c1=O)c1cn(C)c2ccccc12,"inconclusive: 39.8 µM [inhibitor, partial curve]",
COc1ccc(NCN2C(=O)C3C4C=CC(C4)C3C2=O)cc1 (stereo not drawn),active: 28 µM,
Cc1c(C(=O)NNc2c(Cl)cccc2Cl)n(C)oc1=O,"inconclusive: 8.91 µM [inhibitor, partial curve]",
CCN(CCCNC(=O)C1CCC(=O)N1C(C)C)c1cccc(C)c1 (stereo not drawn),"inconclusive: 11.1 µM [activator, partial curve]",
Cc1ccsc1C1Nc2ccccc2C(=O)N1O (stereo not drawn),"inconclusive: 11.2 µM [inhibitor, single point]",
O=C(O)c1ccc(CNC(=O)c2ccc3c(c2)C(=O)N(Cc2cccnc2)C3=O)cc1,"inconclusive: 50.1 µM [inhibitor, single point]",
Oc1ccc(C23CC4CC(CC(C4)C2)C3)cc1O,"inconclusive: 50.1 µM [inhibitor, single point]",
COc1ccc(C(C)n2c(C)c3c(C)nnc(C)c3c2C)cc1 (stereo not drawn),"inconclusive: 31.6 µM [activator, partial curve]",
Cc1oc2cc(O)cc(C)c2c(=O)c1-c1cnn(-c2ccccc2)c1,inactive,
CCOc1ccccc1NC(=O)c1ccc(S(=O)(=O)N(C)C)cc1,"inconclusive: 11.2 µM [inhibitor, single point]",
Cc1c(O)c(CN2CCCC2)cc2c3c(c(=O)oc12)CCC3,"inconclusive: 39.5 µM [activator, single point]",
CC(C)=NNC1=NC(C)(C)Cc2ccccc21,"inconclusive: 25.1 µM [inhibitor, partial curve]",
O=C(NC(=S)Nc1cccc2c(O)cccc12)c1cccc(Br)c1,"inconclusive: 39.5 µM [inhibitor, single point]",
CC(=O)c1ccc(NC(=O)c2cnn3ccccc23)cc1,"inconclusive: 100 µM [inhibitor, partial curve, poor fit]",
NS(=O)(=O)c1ccc(-c2ccc(/C=N/Nc3ccc(C(=O)O)cc3)o2)cc1,"inconclusive: 28.2 µM [inhibitor, partial curve]",
CN(C)c1ccc(NS(=O)(=O)c2cc3c4c(c2)CC(=O)N4CCC3)cc1,"inconclusive: 50.1 µM [inhibitor, single point]",
C/C(=N\N1CCN(C2c3ccccc3-c3ccccc32)CC1)c1cccnc1,active: 31.6 µM,
CCCC(=O)NCc1ccc2c(c1)cc(C)n2C,"inconclusive: 35.2 µM [activator, single point]",

Structure (SMILES),Potency,"activity change, negative = inhibition"
CN(C)c1ccc(CC2C(=O)Nc3ccccc32)cc1 (stereo not drawn),"inconclusive: 7.94 µM [inhibitor, partial curve]",
CCNC(=S)NNC(=O)c1cc(C)on1,"inconclusive: 7.94 µM [inhibitor, partial curve]",
Cn1c(-c2sc3cc(C(F)(F)F)cnc3c2-c2ccccc2)n[nH]c1=S,"inconclusive: 35.2 µM [inhibitor, single point]",
O=C1CCC/C(=N\NC(=O)c2ccc(COc3ccccc3-c3ccccc3)cc2)C1,"inconclusive: 3.98 µM [inhibitor, full curve]",
COC(=O)c1ccc([N+](=O)[O-])c(CS(=O)(=O)c2ccc(Cl)cc2)c1,inactive,
COC(=O)C1=C(C)Nc2c(c(=O)n(C)c(=O)n2C)C1c1cccs1 (stereo not drawn),"inconclusive: 35.2 µM [inhibitor, partial curve]",
S=c1[nH]nc(-c2cc3c(s2)-c2ccccc2CC3)o1,"inconclusive: 25.1 µM [inhibitor, partial curve]",
CCOC(=O)c1[nH]c2ccccc2c1NC(=S)Nc1ccccc1,"inconclusive: 8.91 µM [inhibitor, full curve]",
Cc1cc2c(cc1C)NC(CC(=O)Nc1ccccc1SC(F)(F)F)C(=O)N2 (stereo not drawn),"inconclusive: 35.5 µM [activator, single point]",
COc1ccc(-c2oc(NC(=O)CCl)c(C#N)c2-c2ccc(OC)cc2)cc1,"inconclusive: 24.9 µM [inhibitor, partial curve]",
Cc1ccc(O)c(CNc2cccc3cccnc23)c1,"inconclusive: 19.8 µM [inhibitor, single point]",
Clc1ccc2c(c1)CNc1c(ncnc1N1CCOCC1)O2,"inconclusive: 9.92 µM [inhibitor, partial curve]",
CCCCn1cc(S(=O)(=O)c2ccc(F)cc2)c(=O)c2ccccc21,"inconclusive: 10 µM [inhibitor, partial curve]",
Oc1ccc(/C=N/Nc2ncnc3nc[nH]c23)cc1,"inconclusive: 28.2 µM [inhibitor, partial curve]",
Oc1ccc(/C=N/n2c(-c3ccccc3)n[nH]c2=S)cc1,"inconclusive: 25.1 µM [inhibitor, single point]",
CCC(=O)NC(=S)NNC(=O)c1ccc(OC)cc1,"inconclusive: 14 µM [inhibitor, partial curve]",
O=c1c2c3c(sc2nc2n1CCCC2)CCC3,"inconclusive: 39.5 µM [inhibitor, single point]",
C/C(=N\Nc1ccc(Cl)c(C(=O)O)c1)c1ccc2c(c1)OCO2,"inconclusive: 25.1 µM [inhibitor, single point]",
O=C(CSc1ccc(-c2ccco2)nn1)N1CCCC1,"inconclusive: 3.95 µM [inhibitor, single point]",
COc1ccc(N2CCCC2)c(NC(=O)c2ccc([N+](=O)[O-])o2)c1,"inconclusive: 50.1 µM [inhibitor, single point]",
CC(O)CC(C(=O)NNc1ccccc1)C(=O)NNc1ccccc1 (stereo not drawn),"inconclusive: 8.91 µM [inhibitor, full curve]",
O=C1OC(c2ccc(F)cc2)=N/C1=C\c1ccc(Br)o1,"inconclusive: 50.1 µM [inhibitor, single point]",
